The results in this text go back to paper PMC5515408.

The list shows a part of the results. At the low end of the ranking the order means little.

This experiment deals with MYC (p64) + MAX (p21), in MYC:MAX. Briefly: protein-binding microarray (anti-MAX antibody). Particulars: PBM: 15 mM Tris-HCl pH 7.5, 100 mM KCl, 0.075% NP40, 7.5 mM beta-mercaptoethanol, 375 ng/ul BSA, 8 ng/ul poly(dA-dT):(dA-dT), 550 ng complex, 60 min, room …; high values mean tight binding; double strand, one strand shown; sequences stand for … in CCGGC…TTAATAGCTAAGATTACTATATCGACG
In the case of CAATGTCTTAAC, the binding signal (log2 normalized fluorescence) came out at 0.198.

For the sequence TGACGTTCCGTA, the binding signal (log2 normalized fluorescence) is 0.0698.

Regarding TGAGGGCTTGTA, the binding signal (log2 normalized fluorescence) was 0.0447.

Regarding CTTCTCTGTCTC, the binding signal (log2 normalized fluorescence) is -0.175.

In the case of TGATTGCCGGTA, the binding signal (log2 normalized fluorescence) was -0.021.

Regarding TGAATGAACGTA, the binding signal (log2 normalized fluorescence) was determined as 0.158.

On to TGACACGTGCCG, for which the binding signal (log2 normalized fluorescence) was determined as 0.783.

As for TGACGATCCGTA, the binding signal (log2 normalized fluorescence) came out at 0.113.

Turning to TCGTACGTGGTA, the binding signal (log2 normalized fluorescence) was 0.376.

As to GTTCACGTGGTA, the binding signal (log2 normalized fluorescence) worked out at 0.664.

Take TGACCTGTCGTA: the binding signal (log2 normalized fluorescence) came out at 0.112.

For the sequence TCAAACATGGTA, the binding signal (log2 normalized fluorescence) was determined as 0.362.

Turning to TGATCTCACGTA, the binding signal (log2 normalized fluorescence) is 0.19.

For the sequence TGACCGGGAGTA, the binding signal (log2 normalized fluorescence) is -0.00879.

For TGATCAAATGTA, the binding signal (log2 normalized fluorescence) turned out to be 0.101.

Take TGATGTAGAGTA: the binding signal (log2 normalized fluorescence) was -0.0941.

On to TCACATGTGTTA, for which the binding signal (log2 normalized fluorescence) turned out to be 0.76.

Regarding TGACCAATTGTA, the binding signal (log2 normalized fluorescence) stood at 0.0589.

With TGAGATACGGTA, the binding signal (log2 normalized fluorescence) was -0.0397.

Take TGATGTTCCGTA: the binding signal (log2 normalized fluorescence) came out at 0.196.

As to TGAAACTTTGTA, the binding signal (log2 normalized fluorescence) was -0.0223.

In the case of TGACACGAGGTA, the binding signal (log2 normalized fluorescence) amounted to 0.625.

In the case of TGAATTCAGGTA, the binding signal (log2 normalized fluorescence) worked out at 0.0452.

Regarding TGACACGTGGAT, the binding signal (log2 normalized fluorescence) stood at 0.893.

Take TGACACGTTGTA: the binding signal (log2 normalized fluorescence) came out at 0.534.

For TAAGACTTGGTA, the binding signal (log2 normalized fluorescence) was -0.0121.

Regarding TGATAGTTGGTA, the binding signal (log2 normalized fluorescence) was -0.284.

Turning to TGATGTGGGGTA, the binding signal (log2 normalized fluorescence) is 0.239.

For the sequence TGACCACTCGTA, the binding signal (log2 normalized fluorescence) is 0.235.

In the case of TGACAAACCGTA, the binding signal (log2 normalized fluorescence) amounted to 0.206.

Regarding TGAGAACTTGTA, the binding signal (log2 normalized fluorescence) is -0.0261.

As for TGAGAGGCGGTA, the binding signal (log2 normalized fluorescence) was -0.0427.

Consider TGATCAATAGTA, for which the binding signal (log2 normalized fluorescence) stood at 0.00347.

In the case of TGACACGTAGCT, the binding signal (log2 normalized fluorescence) stood at 0.399.

TGAGCCCTAGTA: the binding signal (log2 normalized fluorescence) is -0.0652.

With TGATGTGCGGTT, the binding signal (log2 normalized fluorescence) came out at 0.225.

In the case of TGAGTATGCGTA, the binding signal (log2 normalized fluorescence) is 0.0402.

On to TAACACCTGGTG, for which the binding signal (log2 normalized fluorescence) was determined as 0.558.

As to TGACAGACGGTA, the binding signal (log2 normalized fluorescence) is 0.133.

With TGAACAGTGGTA, the binding signal (log2 normalized fluorescence) was -0.00322.

In the case of GCTGACGCGGTT, the binding signal (log2 normalized fluorescence) was 0.13.

On to TGACTCGTGGTA, for which the binding signal (log2 normalized fluorescence) is 0.557.

For TGACCCGGAGTA, the binding signal (log2 normalized fluorescence) was determined as 0.0794.

Consider TGACACATGCAA, for which the binding signal (log2 normalized fluorescence) was 0.632.

For the sequence TGATCCAGCGTA, the binding signal (log2 normalized fluorescence) was -0.0541.

Regarding TGAGTATTTGTA, the binding signal (log2 normalized fluorescence) was -0.123.

For TGAGGCTGAGTA, the binding signal (log2 normalized fluorescence) is -0.0865.

With TGAAGTGCGGTA, the binding signal (log2 normalized fluorescence) worked out at 0.348.

In the case of TGATGTAGTGTA, the binding signal (log2 normalized fluorescence) amounted to 0.0973.

With TGACTGTAAGTA, the binding signal (log2 normalized fluorescence) was -0.0155.

For TGAAATGGGTTT, the binding signal (log2 normalized fluorescence) worked out at 0.155.

In the case of TGATTGCACGTA, the binding signal (log2 normalized fluorescence) was determined as 0.132.

Turning to TGATGCACAGTA, the binding signal (log2 normalized fluorescence) was found to be 0.149.

Take TGACTCGTCGTA: the binding signal (log2 normalized fluorescence) amounted to 0.0849.

Take TGAGAGTCGGTA: the binding signal (log2 normalized fluorescence) is -0.281.

Turning to TGACATCGGGTA, the binding signal (log2 normalized fluorescence) was found to be 0.234.

For the sequence TGAGCGGCCGTA, the binding signal (log2 normalized fluorescence) was -0.108.

As for TGACAAGCCGTA, the binding signal (log2 normalized fluorescence) was -0.000872.

Take TGAAACGTGTTA: the binding signal (log2 normalized fluorescence) was 0.678.

TGATTGTAAGTA: the binding signal (log2 normalized fluorescence) is -0.0911.

Regarding TGAGGTGCGGTA, the binding signal (log2 normalized fluorescence) was determined as 0.265.

For TGAGCTATGGTA, the binding signal (log2 normalized fluorescence) was -0.0426.

Consider TGACGCCGTGTA, for which the binding signal (log2 normalized fluorescence) is 0.275.

On to TGATCTTAAGTA, for which the binding signal (log2 normalized fluorescence) was -0.0507.

As to TGACGAAGTGTA, the binding signal (log2 normalized fluorescence) worked out at 0.078.

On to TCAAAAGTGGTA, for which the binding signal (log2 normalized fluorescence) was 0.0112.

With TTATACGTGATA, the binding signal (log2 normalized fluorescence) worked out at 0.293.

Regarding TGAGCGGCAGTA, the binding signal (log2 normalized fluorescence) came out at 0.0431.

On to TGATACGGCGTA, for which the binding signal (log2 normalized fluorescence) is -0.0658.

Take TGAAACAGGGTA: the binding signal (log2 normalized fluorescence) was determined as 0.207.

Regarding TGATTCGTTGTA, the binding signal (log2 normalized fluorescence) was 0.0963.

With TGAGACCATGTA, the binding signal (log2 normalized fluorescence) is 0.234.

Take TGATGCAATGTA: the binding signal (log2 normalized fluorescence) amounted to 0.0212.

Take TGATGTGAAGTA: the binding signal (log2 normalized fluorescence) was -0.0253.

Take TGATATTGCGTA: the binding signal (log2 normalized fluorescence) is 0.0584.

On to TGACCCTCTGTA, for which the binding signal (log2 normalized fluorescence) was found to be 0.0911.

In the case of TGATAAGGGGTA, the binding signal (log2 normalized fluorescence) was 0.0838.

With TGAAGGCGAGTA, the binding signal (log2 normalized fluorescence) is -0.0219.

Take TTACACGTGGCG: the binding signal (log2 normalized fluorescence) is 0.878.

For TGAGTGTTGGTA, the binding signal (log2 normalized fluorescence) came out at 0.0609.

Take TGAGAACGTGTA: the binding signal (log2 normalized fluorescence) is 0.449.

For the sequence TGAGGAGATGTA, the binding signal (log2 normalized fluorescence) was -0.126.

Turning to TGAATAGCAGTA, the binding signal (log2 normalized fluorescence) is -0.033.

As for TGAACTGTAGTA, the binding signal (log2 normalized fluorescence) is -0.0562.

With TAACACGTGGTA, the binding signal (log2 normalized fluorescence) came out at 0.946.

Consider TGAATTCGTGTA, for which the binding signal (log2 normalized fluorescence) was 0.379.

On to TGACGTCGTGTA, for which the binding signal (log2 normalized fluorescence) is 0.338.

As to TGAAACATTGTA, the binding signal (log2 normalized fluorescence) worked out at 0.262.

Turning to TGACCCGCTGTA, the binding signal (log2 normalized fluorescence) was 0.182.

For the sequence TGAAGTTTCGTA, the binding signal (log2 normalized fluorescence) stood at 0.0215.

For the sequence TGACTCAAGGTA, the binding signal (log2 normalized fluorescence) is 0.0877.

Regarding TGACACGTAACA, the binding signal (log2 normalized fluorescence) was found to be 0.468.

As to TGATGCAGGGTA, the binding signal (log2 normalized fluorescence) was 0.0366.

Regarding TGACGCGTCGTG, the binding signal (log2 normalized fluorescence) was 0.366.

Regarding TGAACTGTTGTA, the binding signal (log2 normalized fluorescence) was 0.0311.

In the case of TGAGGCTTCGTA, the binding signal (log2 normalized fluorescence) is -0.0168.

Regarding TGACCCGTCGGA, the binding signal (log2 normalized fluorescence) is -0.0853.

With TGACAATGCGTA, the binding signal (log2 normalized fluorescence) is 0.338.

On to TGATCATTAGTA, for which the binding signal (log2 normalized fluorescence) is -0.0315.

Take TGACAATTGGTA: the binding signal (log2 normalized fluorescence) turned out to be 0.0104.

Consider TGGCAAGTGGTA, for which the binding signal (log2 normalized fluorescence) was 0.374.

In the case of TGAGTTTGTGTA, the binding signal (log2 normalized fluorescence) was -0.117.

Turning to TGACCGGAAGTA, the binding signal (log2 normalized fluorescence) amounted to 0.135.

Consider TGAGCATGAGTA, for which the binding signal (log2 normalized fluorescence) stood at 0.474.

Regarding TGAAATGATGTA, the binding signal (log2 normalized fluorescence) was found to be 0.168.

Take TGATCCTTAGTA: the binding signal (log2 normalized fluorescence) was -0.0535.

Turning to TGAAAGGCAGTA, the binding signal (log2 normalized fluorescence) was -0.0483.

For the sequence TGATGAGTAGTA, the binding signal (log2 normalized fluorescence) came out at 0.039.

Regarding TGAGAAGGGGTA, the binding signal (log2 normalized fluorescence) amounted to 0.248.

On to TGAGAAAACGTA, for which the binding signal (log2 normalized fluorescence) is -0.104.

For TGAAAACCTGTA, the binding signal (log2 normalized fluorescence) stood at 0.222.

Regarding TGAAAATCCGTA, the binding signal (log2 normalized fluorescence) is -0.0374.

For the sequence TTACACATGCTA, the binding signal (log2 normalized fluorescence) was 0.812.

TGAAGCTACGTA: the binding signal (log2 normalized fluorescence) amounted to 0.0596.

In the case of TGAGTTTGCGTA, the binding signal (log2 normalized fluorescence) amounted to 0.000556.

Regarding TGAGTAAGGGTA, the binding signal (log2 normalized fluorescence) was -0.103.

TGAGACAGTGTA: the binding signal (log2 normalized fluorescence) turned out to be 0.101.

On to TGACTGCTTGTA, for which the binding signal (log2 normalized fluorescence) was found to be 0.107.

In the case of TGAGAGGCCGTA, the binding signal (log2 normalized fluorescence) was 0.0066.

Turning to TGACTGAGTGTA, the binding signal (log2 normalized fluorescence) worked out at 0.0572.

As to TGATGAAGGGTA, the binding signal (log2 normalized fluorescence) is -0.106.

Consider TCTCAGGTGGTA, for which the binding signal (log2 normalized fluorescence) was determined as 0.301.

Take TGAAGGCCTGTA: the binding signal (log2 normalized fluorescence) was 0.18.

Take TGACTCCCAGTA: the binding signal (log2 normalized fluorescence) was -0.0472.

With TGAGAAAGAGTA, the binding signal (log2 normalized fluorescence) is -0.29.

As for TGAGAGGTTGTA, the binding signal (log2 normalized fluorescence) was 0.0898.

In the case of TGATTTCCAGTA, the binding signal (log2 normalized fluorescence) was 0.0193.

In the case of TGAATATCCGTA, the binding signal (log2 normalized fluorescence) was -0.0266.

For TGAAGTCATGTA, the binding signal (log2 normalized fluorescence) is 0.105.

Consider TGACACGGGTTT, for which the binding signal (log2 normalized fluorescence) came out at 0.321.

TGAGGACGAGTA: the binding signal (log2 normalized fluorescence) is -0.00251.

TGAATGAAGGTA: the binding signal (log2 normalized fluorescence) turned out to be 0.113.

Consider TGGCACCTGGCA, for which the binding signal (log2 normalized fluorescence) stood at 0.319.

With TTACAGGTGGTT, the binding signal (log2 normalized fluorescence) stood at 0.396.

On to TGACAACTGGTA, for which the binding signal (log2 normalized fluorescence) was -0.0365.

With CCACACGTGGTG, the binding signal (log2 normalized fluorescence) was determined as 0.705.

TGAGAGGTCGTA: the binding signal (log2 normalized fluorescence) worked out at 0.0079.
